{"source": "PubChem BioAssay AID1347165", "about": "(National Center for Advancing Translational Sciences (NCATS), 2019)", "note": "Screen size: about 220,000 compounds; about 5,700 (2.6%) were called active. Inconclusive means that the source gave no clear call. Such entries were picked first, then a sample of the others. The call rests on the fitted dose curve; in most records, active means well fitted inhibition curve with a large enough effect; inconclusive means small, poorly fitted or top-dose-only effect; inactive means no such curve, though single readings can be large or run the other way. Potencies beside an inconclusive call are fits to weak or partial responses and may not hold up. Potency means the concentration at half of the fitted maximal effect; tags describe the fitted curve by direction and shape.", "data": [{"target": "Lysine-specific demethylase 5B (Homo sapiens) (UniProt Q9UGL1)", "sequence (Q9UGL1 whole entry, looked up)": "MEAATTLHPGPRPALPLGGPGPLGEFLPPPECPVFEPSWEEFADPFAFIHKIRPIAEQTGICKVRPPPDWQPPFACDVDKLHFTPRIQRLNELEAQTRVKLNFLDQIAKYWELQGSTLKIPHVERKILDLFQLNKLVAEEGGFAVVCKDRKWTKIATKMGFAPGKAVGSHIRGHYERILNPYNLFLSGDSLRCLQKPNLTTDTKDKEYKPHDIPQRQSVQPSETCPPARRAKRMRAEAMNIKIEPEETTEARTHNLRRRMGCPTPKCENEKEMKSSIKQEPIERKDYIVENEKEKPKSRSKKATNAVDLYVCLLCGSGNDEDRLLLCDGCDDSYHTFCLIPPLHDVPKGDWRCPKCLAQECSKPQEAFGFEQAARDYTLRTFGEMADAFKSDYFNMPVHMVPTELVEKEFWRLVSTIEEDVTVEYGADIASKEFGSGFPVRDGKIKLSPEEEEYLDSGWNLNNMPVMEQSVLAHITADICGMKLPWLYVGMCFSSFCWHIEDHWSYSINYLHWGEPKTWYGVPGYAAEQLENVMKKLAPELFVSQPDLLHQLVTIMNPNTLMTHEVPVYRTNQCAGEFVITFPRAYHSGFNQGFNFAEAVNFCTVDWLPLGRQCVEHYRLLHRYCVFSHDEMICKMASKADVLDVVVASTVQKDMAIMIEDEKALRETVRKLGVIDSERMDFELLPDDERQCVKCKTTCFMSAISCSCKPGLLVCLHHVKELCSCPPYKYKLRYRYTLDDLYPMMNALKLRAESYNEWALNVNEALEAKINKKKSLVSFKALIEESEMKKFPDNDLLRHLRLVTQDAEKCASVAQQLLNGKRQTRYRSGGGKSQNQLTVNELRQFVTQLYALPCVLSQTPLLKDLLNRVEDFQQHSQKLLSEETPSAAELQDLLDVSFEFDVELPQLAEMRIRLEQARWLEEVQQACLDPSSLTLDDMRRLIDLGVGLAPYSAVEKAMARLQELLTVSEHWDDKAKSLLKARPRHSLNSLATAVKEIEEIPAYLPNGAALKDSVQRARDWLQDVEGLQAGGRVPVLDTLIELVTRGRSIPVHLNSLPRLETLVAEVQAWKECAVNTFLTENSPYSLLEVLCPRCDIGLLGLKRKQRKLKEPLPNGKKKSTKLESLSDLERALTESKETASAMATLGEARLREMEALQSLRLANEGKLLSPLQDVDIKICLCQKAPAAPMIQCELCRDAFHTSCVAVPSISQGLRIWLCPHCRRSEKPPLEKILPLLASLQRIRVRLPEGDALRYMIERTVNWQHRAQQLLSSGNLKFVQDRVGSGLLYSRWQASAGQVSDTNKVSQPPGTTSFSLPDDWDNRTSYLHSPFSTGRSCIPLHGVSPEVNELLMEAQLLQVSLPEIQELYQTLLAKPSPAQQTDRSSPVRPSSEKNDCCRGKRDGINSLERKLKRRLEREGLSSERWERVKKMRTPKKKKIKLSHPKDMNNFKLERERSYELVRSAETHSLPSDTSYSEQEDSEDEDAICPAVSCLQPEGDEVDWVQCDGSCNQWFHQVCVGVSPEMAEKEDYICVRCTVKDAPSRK", "assay": "Primary screen for KDM5B Histone Demethylases FDH-coupled qHTS; further: nearly all actives have a fitted effect of over 70% in size", "details": "FDH-coupled NADH fluorescence (FDH is formaldehyde dehydrogenase); series mostly up to 57.7 µM", "how_it_was_run": "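Here, H3K4me3 peptide (12.5 µM in substrate mix) is demethylated by KDM5BΔAP, 200 nM final, after 10 min compound exposure. Formaldehyde product is coupled through FDH (0.25 U/mL in mix) to NADH fluorescence; 30-min ΔRFU feeds dose-response curves.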", "values": [{"smiles": "O=C(COC(=O)c1ccccc1Br)Nc1nc(-c2ccccc2)cs1", "Potency": "inactive"}, {"smiles": "CCCC(=O)N1CCN(S(=O)(=O)c2cc3c(cc2Cl)NC(=O)CO3)CC1", "Potency": "inconclusive: 28.2 µM [inhibitor, single point]"}, {"smiles": "CCOCCCNC(=O)C(Cc1ccccc1)NS(=O)(=O)c1ccc2c(c1)c(=O)n(C)c(=O)n2C", "note": "(centres undefined)", "Potency": "inconclusive: 22.4 µM [inhibitor, single point]"}, {"smiles": "COCCn1c(C)cc(C(=O)N2CC(COC)C3(CCNCC3)C2)c1C", "note": "(centres undefined)", "Potency": "inconclusive: 31.6 µM [inhibitor, partial curve, poor fit]"}, {"smiles": "O=C(c1cccc(Cl)c1)N1CCN(CCc2ccncc2)CC1", "Potency": "inconclusive: 17.8 µM [inhibitor, single point]"}, {"smiles": "COc1ccc(C(=O)Nc2ccc3nc(N4CCC(C)CC4)cc(C)c3c2)cc1", "Potency": "inconclusive: 1.58 µM [inhibitor, full curve, poor fit]"}, {"smiles": "O=C(c1cc2cc(Cl)cc(Cl)c2oc1=O)N1CCN(Cc2ccccc2)CC1", "Potency": "inactive"}, {"smiles": "Cc1ccc(-c2cc(-c3ccc(=O)[nH]c3)c3cncn3c2)cn1", "Potency": "inconclusive: 31.6 µM [inhibitor, partial curve, poor fit]"}, {"smiles": "CC1CCN(c2c(S(=O)(=O)c3ccccc3)cnc3cc4c(cc23)OCCO4)CC1", "Potency": "inactive"}, {"smiles": "CCc1ccc(C2Cc3ccccc3N2)cc1", "note": "(centres undefined)", "Potency": "inconclusive: 2.51 µM [inhibitor, full curve, poor fit]"}, {"smiles": "O=C(Nc1cccc(OCc2cc(=O)n3c4c(sc3n2)CCCC4)c1)c1ccc(F)cc1", "Potency": "inconclusive: 11.2 µM [inhibitor, partial curve, poor fit]"}, {"smiles": "COc1ccc2[nH]c3c(c2c1)CCNC31CCN(C(=O)c2cnccn2)CC1", "Potency": "inactive"}, {"smiles": "CCN1c2cc(C(=O)Nc3cc(F)cc(F)c3)ccc2C(=O)N2CCCCC21", "note": "(centres undefined)", "Potency": "inconclusive: 31.6 µM [inhibitor, partial curve, poor fit]"}, {"smiles": "CN(C)c1ccc(C(=O)NC2CCN(c3cc(-c4ccccc4)[nH]n3)C2)cc1", "note": "(centres undefined)", "Potency": "active: 14.1 µM"}, {"smiles": "CC(=O)Nc1nc2c(C)cc(NS(=O)(=O)Cc3ccccc3)cc2s1", "Potency": "inactive"}, {"smiles": "O=C1CC(c2ccccc2)N(C(=O)COc2ccc(F)cc2)CCCCCCN1", "note": "(centres undefined)", "Potency": "inactive"}, {"smiles": "COc1cccc(C2Cn3nnc(-c4nc(-c5ccccc5OC)no4)c3CO2)c1", "note": "(centres undefined)", "Potency": "inconclusive: 17.8 µM [inhibitor, single point]"}, {"smiles": "CCOCCCNC(=O)c1nnn2cc(-c3ccccc3)[nH]c(=O)c12", "Potency": "active: 28.2 µM"}, {"smiles": "O=C(Nc1nnc(Cc2ccccc2)s1)C1CC(=O)N(c2n[nH]c3cccc(F)c23)C1", "note": "(centres undefined)", "Potency": "inconclusive: 14.1 µM [inhibitor, partial curve]"}]}]}
